Here are results for 28 sequences from paper PMC5700166.

Experiment in all cases: protein-binding microarray (PBM)
Common to all, as to conditions: PBM: ~300 nM protein, 6 mM HEPES pH 7.8, 80 mM KCl, 0.5 mM EDTA, 0.5 mM EGTA, 6% glycerol, 35 ng/ul poly-dIdC, 1% milk, 1 h, room temperature; Ap Aiptasia and Nv Nematostella (sea anemones) / Co Capsaspora / Aq Amphimedon (sponge) / Dm Drosophila / Hu human; RHD is the Rel homology domain; high values mean tight binding; most listed sequences are background and not binding sites; double strand, one strand shown

The target in experiment [1] is T1, GST-Nv-NF-kB (Cys allele) (UniProt E5G601).
T1 sequence: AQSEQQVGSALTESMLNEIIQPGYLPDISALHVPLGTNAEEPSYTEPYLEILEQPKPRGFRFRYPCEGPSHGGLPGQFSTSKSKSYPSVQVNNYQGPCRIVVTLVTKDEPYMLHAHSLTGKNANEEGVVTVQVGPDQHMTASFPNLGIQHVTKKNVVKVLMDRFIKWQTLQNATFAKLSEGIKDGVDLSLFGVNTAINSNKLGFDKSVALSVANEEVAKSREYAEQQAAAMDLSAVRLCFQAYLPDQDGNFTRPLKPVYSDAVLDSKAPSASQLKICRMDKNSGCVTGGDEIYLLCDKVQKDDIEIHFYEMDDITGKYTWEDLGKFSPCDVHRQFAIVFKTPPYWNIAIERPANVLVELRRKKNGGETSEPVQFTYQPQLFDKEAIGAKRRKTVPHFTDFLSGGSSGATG

Experiment [2] has as its target T2, GST-Dm-Relish (UniProt Q94527).
T2 sequence: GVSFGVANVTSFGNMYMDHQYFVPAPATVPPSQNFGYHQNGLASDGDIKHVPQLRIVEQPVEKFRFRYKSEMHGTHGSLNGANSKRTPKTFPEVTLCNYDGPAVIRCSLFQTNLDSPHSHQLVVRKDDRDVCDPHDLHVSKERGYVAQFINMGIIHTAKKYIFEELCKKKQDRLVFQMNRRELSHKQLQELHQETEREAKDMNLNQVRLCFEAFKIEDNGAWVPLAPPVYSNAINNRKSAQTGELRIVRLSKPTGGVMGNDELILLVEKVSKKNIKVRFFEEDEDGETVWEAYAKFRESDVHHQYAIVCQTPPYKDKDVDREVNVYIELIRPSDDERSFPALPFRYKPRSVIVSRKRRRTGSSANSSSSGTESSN

For experiment [3], the target named is T3, GST-Aq-NF-kB (UniProt A9Y5G7).
T3 sequence: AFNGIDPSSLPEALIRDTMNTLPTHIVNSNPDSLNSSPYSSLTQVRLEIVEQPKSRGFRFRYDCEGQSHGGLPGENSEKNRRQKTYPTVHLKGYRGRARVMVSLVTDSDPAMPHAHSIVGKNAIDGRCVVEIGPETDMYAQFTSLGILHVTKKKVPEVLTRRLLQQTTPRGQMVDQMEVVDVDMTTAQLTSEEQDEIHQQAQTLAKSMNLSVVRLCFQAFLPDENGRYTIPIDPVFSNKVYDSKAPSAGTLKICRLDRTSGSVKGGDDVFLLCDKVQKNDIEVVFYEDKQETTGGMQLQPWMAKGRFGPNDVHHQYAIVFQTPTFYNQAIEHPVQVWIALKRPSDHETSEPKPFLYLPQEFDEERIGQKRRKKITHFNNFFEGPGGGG

Experiment [4] has as its target T4, GST-Co-NF-kB (UniProt F1ARL5).
T4 sequence: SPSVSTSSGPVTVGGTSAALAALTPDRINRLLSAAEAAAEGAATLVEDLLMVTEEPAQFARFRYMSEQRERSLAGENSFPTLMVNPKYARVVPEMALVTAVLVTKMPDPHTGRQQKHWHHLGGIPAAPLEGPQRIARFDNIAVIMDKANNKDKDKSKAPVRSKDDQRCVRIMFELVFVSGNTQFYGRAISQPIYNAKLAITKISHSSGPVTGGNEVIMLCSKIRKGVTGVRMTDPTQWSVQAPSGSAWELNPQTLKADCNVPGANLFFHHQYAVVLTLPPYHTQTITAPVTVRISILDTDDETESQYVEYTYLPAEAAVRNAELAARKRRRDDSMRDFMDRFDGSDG

The entries are a selection whose mix differs from that of the whole data set. The list includes weakly bound sequences.

Consider “CCGATTAACATCACTACCCCGGATGATGTTAATCGGGTCTTGATTCGCTTGACGCTGCTG”, for which the binding signal in experiment [1] is 0.464 z-score; in experiment [2], 0.827 z-score; in experiment [3], 0.981 z-score.

In the case of “CCGATTAACATCATCCCTTGTCATGATGTTAATCGGGTCTTGATTCGCTTGACGCTGCTG”, the binding signal in experiment [1] was determined as 0.811 z-score; in experiment [4], 0.499 z-score; in experiment [2], 0.162 z-score; in experiment [3], 0.8 z-score.

Regarding “CCGATTAACATCAAGGGAATCCCTGATGTTAATCGGGTCTTGATTCGCTTGACGCTGCTG”, the binding signal in experiment [1] worked out at 6.1 z-score; in experiment [4], 2.83 z-score; in experiment [2], 9.2 z-score; in experiment [3], 6.63 z-score.

On to “CCGATTAACATCAGGGAAATATATGATGTTAATCGGGTCTTGATTCGCTTGACGCTGCTG”, for which the figures for the binding signal in experiment [1], in experiment [2] and in experiment [3] were 5.66 z-score, 1.94 z-score and 6.09 z-score, respectively.

For the sequence “CCGATTAACATCAATTTTCCCCGTGATGTTAATCGGGTCTTGATTCGCTTGACGCTGCTG”, the binding signal turned out to be 8.12 z-score in experiment [1], 11 z-score in experiment [4], 4.87 z-score in experiment [2] and 6.2 z-score in experiment [3].

For “CCGATTAACATCAGGGATTAACATGATGTTAATCGGGTCTTGATTCGCTTGACGCTGCTG”, the binding signal in experiment [1] was 0.829 z-score; in experiment [4] it was 0.41 z-score; in experiment [2] it was 4.89 z-score; in experiment [3] it was 1.83 z-score.

Take “CCGATTAACATCAGCCCCGGTGTTGATGTTAATCGGGTCTTGATTCGCTTGACGCTGCTG”: the results for the binding signal in experiment [1], in experiment [2] and in experiment [3] were 0.893 z-score, -0.0198 z-score and 2.37 z-score, respectively.

As to “CCGATTAACATCAGGCGATTCCCTGATGTTAATCGGGTCTTGATTCGCTTGACGCTGCTG”, the binding signal amounted to 2.99 z-score in experiment [1], 2.34 z-score in experiment [2] and 3.88 z-score in experiment [3].

For “CCGATTAACATCATGTTTGCGGGTGATGTTAATCGGGTCTTGATTCGCTTGACGCTGCTG”, the binding signal in experiment [1] was -0.0901 z-score; in experiment [4], 1.02 z-score; in experiment [2], 0.472 z-score; in experiment [3], 0.335 z-score.

For “CCGATTAACATCACGGGATCCCCTGATGTTAATCGGGTCTTGATTCGCTTGACGCTGCTG”, the binding signal in experiment [1] is 4.81 z-score; in experiment [2], 9.23 z-score; in experiment [3] it was 5.41 z-score.

In the case of “CCGATTAACATCAAGGGGATTTATGATGTTAATCGGGTCTTGATTCGCTTGACGCTGCTG”, the binding signal in experiment [1] turned out to be 9.15 z-score; in experiment [4], 3.44 z-score; in experiment [2], 8.3 z-score; in experiment [3] it was 6.25 z-score.

As to “CCGATTAACATCACCCGGCGCAGTGATGTTAATCGGGTCTTGATTCGCTTGACGCTGCTG”, the binding signal in experiment [1] was -0.0701 z-score; in experiment [2], 0.799 z-score; in experiment [3] it was 0.573 z-score.

Regarding “CCGATTAACATCAGGGAAACTTATGATGTTAATCGGGTCTTGATTCGCTTGACGCTGCTG”, the binding signal in experiment [1] is 6.28 z-score; in experiment [2] it was 2.25 z-score; in experiment [3], 6.43 z-score.

Regarding “CCGATTAACATCAGGAATCCCACTGATGTTAATCGGGTCTTGATTCGCTTGACGCTGCTG”, the binding signal was found to be 1.37 z-score in experiment [1], 0.956 z-score in experiment [4], 8.1 z-score in experiment [2] and 1.75 z-score in experiment [3].

With “CCGATTAACATCAGGGAACCACCTGATGTTAATCGGGTCTTGATTCGCTTGACGCTGCTG”, the binding signal came to 5.68 z-score in experiment [1], 9.5 z-score in experiment [2] and 6.96 z-score in experiment [3].

“CCGATTAACATCAGGGATTTCACTGATGTTAATCGGGTCTTGATTCGCTTGACGCTGCTG”: the binding signal was 2.33 z-score in experiment [1], 0.654 z-score in experiment [4], 6.3 z-score in experiment [2] and 4.19 z-score in experiment [3].

“CCGATTAACATCAGGGGAACGCATGATGTTAATCGGGTCTTGATTCGCTTGACGCTGCTG”: the binding signal stood at 5.4 z-score in experiment [1], 2.68 z-score in experiment [2] and 3.75 z-score in experiment [3].

As for “CCGATTAACATCAGGGAAACAAATGATGTTAATCGGGTCTTGATTCGCTTGACGCTGCTG”, the binding signal in experiment [1] is 3.05 z-score; in experiment [2], 0.99 z-score; in experiment [3] it was 3.12 z-score.

Regarding “CCGATTAACATCACTGGGAGGGCTGATGTTAATCGGGTCTTGATTCGCTTGACGCTGCTG”, the binding signal in experiment [1] worked out at 0.798 z-score; in experiment [4], 1.47 z-score; in experiment [2], 0.933 z-score; in experiment [3], 0.363 z-score.

Take “CCGATTAACATCAGGAAAAGCCCTGATGTTAATCGGGTCTTGATTCGCTTGACGCTGCTG”: the binding signal in experiment [4] was -0.498 z-score; in experiment [3], 4.95 z-score.

As to “CCGATTAACATCACCCGGGAAACTGATGTTAATCGGGTCTTGATTCGCTTGACGCTGCTG”, the results for the binding signal in experiment [1], in experiment [2] and in experiment [3] were 2.39 z-score, 1.11 z-score and 2.32 z-score, respectively.

Take “CCGATTAACATCAGAATTCTCCCTGATGTTAATCGGGTCTTGATTCGCTTGACGCTGCTG”: the binding signal in experiment [1] came out at 4.1 z-score; in experiment [2], 0.902 z-score; in experiment [3] it was 4.02 z-score.

In the case of “CCGATTAACATCAGGGAAAACTATGATGTTAATCGGGTCTTGATTCGCTTGACGCTGCTG”, the figures for the binding signal in experiment [1], in experiment [2] and in experiment [3] were 5.55 z-score, 1.67 z-score and 4.07 z-score, respectively.

Regarding “CCGATTAACATCAAATTTCCCAGTGATGTTAATCGGGTCTTGATTCGCTTGACGCTGCTG”, the binding signal in experiment [4] was 4.39 z-score; in experiment [3], 3.48 z-score.

On to “CCGATTAACATCAGGAAGCCCCATGATGTTAATCGGGTCTTGATTCGCTTGACGCTGCTG”, for which the values for the binding signal in experiment [4] and in experiment [3] were 0.67 z-score and 4.02 z-score, respectively.

Take “CCGATTAACATCACGGGGAATTATGATGTTAATCGGGTCTTGATTCGCTTGACGCTGCTG”: the binding signal in experiment [4] was 8.2 z-score; in experiment [3], 6.42 z-score.

Consider “CCGATTAACATCAGGATTGTCCCTGATGTTAATCGGGTCTTGATTCGCTTGACGCTGCTG”, for which the figures for the binding signal in experiment [4] and in experiment [3] were 1.06 z-score and 5.51 z-score, respectively.

With “CCGATTAACATCAAGGGGGATCCTGATGTTAATCGGGTCTTGATTCGCTTGACGCTGCTG”, the binding signal worked out at 6.38 z-score in experiment [1], 8.84 z-score in experiment [2] and 6.34 z-score in experiment [3].
